Experimental data: patent US20060053496A1 (UNIVERSITY OF NORTH CAROLINA AT CHAPEL HILL, published 2006)

Biological target: T1, FLAG-tagged Monarch-1 (human, UniProt P59046 1-1061)
T1 construct: Expressed in transfected 293T cells and immunoprecipitated from lysate with anti-FLAG M2-agarose; also called FLAG-Monarch-1; Caterpiller 19.3; not shown: N-terminal FLAG tag added by PCR
T1 sequence: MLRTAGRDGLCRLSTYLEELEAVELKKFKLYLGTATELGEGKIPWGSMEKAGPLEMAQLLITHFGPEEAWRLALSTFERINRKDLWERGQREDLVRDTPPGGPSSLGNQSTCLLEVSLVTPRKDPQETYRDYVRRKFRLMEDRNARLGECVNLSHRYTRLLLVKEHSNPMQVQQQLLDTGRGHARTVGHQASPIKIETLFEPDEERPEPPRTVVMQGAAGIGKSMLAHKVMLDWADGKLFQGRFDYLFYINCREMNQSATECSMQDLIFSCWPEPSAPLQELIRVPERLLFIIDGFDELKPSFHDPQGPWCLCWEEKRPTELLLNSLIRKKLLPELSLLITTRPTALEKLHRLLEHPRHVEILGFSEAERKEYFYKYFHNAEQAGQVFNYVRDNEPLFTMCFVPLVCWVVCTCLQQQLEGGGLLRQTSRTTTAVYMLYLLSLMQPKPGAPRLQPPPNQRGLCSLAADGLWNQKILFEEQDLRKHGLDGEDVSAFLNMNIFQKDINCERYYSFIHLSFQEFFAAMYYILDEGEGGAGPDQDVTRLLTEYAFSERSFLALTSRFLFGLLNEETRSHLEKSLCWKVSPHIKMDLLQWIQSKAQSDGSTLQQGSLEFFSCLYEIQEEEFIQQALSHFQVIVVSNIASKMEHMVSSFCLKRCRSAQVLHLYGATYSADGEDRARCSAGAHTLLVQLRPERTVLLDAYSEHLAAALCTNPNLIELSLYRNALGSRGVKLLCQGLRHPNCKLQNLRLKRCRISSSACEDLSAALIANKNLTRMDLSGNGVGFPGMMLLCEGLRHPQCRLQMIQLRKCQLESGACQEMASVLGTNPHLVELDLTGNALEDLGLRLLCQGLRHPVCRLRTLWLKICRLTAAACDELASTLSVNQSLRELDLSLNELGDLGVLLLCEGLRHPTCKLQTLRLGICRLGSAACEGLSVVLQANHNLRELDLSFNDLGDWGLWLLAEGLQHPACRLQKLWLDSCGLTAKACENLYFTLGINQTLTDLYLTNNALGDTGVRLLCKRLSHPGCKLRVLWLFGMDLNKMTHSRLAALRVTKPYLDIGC
Test: co-immunoprecipitation from transfected 293T cells (anti-FLAG M2-agarose IP, anti-HA western blot)
Procedure: Transfections and Immunoprecipitations. 2.5 million 293T cells were seeded in 10-cm cell culture plates. Eighteen to twenty-four hours later, 3 μg of each of the indicated plasmids was transfected using FUGENE6™ (Roche, Indianapolis, Ind.) at a 3:1 FUGENE6™ to DNA ratio and the cells were incubated an additional 18 to 24 hours. Cells were lysed in 0.5% NP-40, 150 mM NaCl, 50 mM Tris pH 8.0, 160 mM EDTA, 50 mM NaF, 10 mM sodium phosphate supplemented with protease inhibitor cocktail (Roche, Indianapolis, Ind.). Nuclei were removed and the resulting supernatant was pre-cleared with mouse IgG-conjugated agarose (Sigma, St. Louis) for 1 hour. FLAG®-tagged proteins were subsequently immunoprecipitated overnight with 35 μl M2-agarose equilibrated in lysis buffer. Beads were washed four times in lysis buffer and proteins eluted in sample buffer (20% Glycerol, 4% SDS, 130 mM Tris pH 6.8, 20 mM DTT) for western blot analysis.
Monarch-1 Associates with TRAF6 but not MyD88 or IRAK1. In addition to the proteins identified by MALDI-MS, 293T cells were transfected with Monarch-1 cDNA and one of the following: HA-MyD88, HA-TRAF6, or HA-IRAK1. Twenty-four hours later the cells were lysed and Monarch-1-containing protein complexes were immunoprecipitated with anti-FLAG® M2-agarose beads overnight. […]

B1: HA-MyD88 (other, human, UniProt Q99836 1-296, looked up)
chain: MAAGGPGAGSAAPVSSTSSLPLAALNMRVRRRLSLFLNVRTQVAADWTALAEEMDFEYLEIRQLETQADPTGRLLDAWQGRPGASVGRLLELLTKLGRDDVLLELGPSIEEDCQKYILKQQQEEAEKPLQVAAVDSSVPRTAELAGITTLDDPLGHMPERFDAFICYCPSDIQFVQEMIRQLEQTNYRLKLCVSDRDVLPGTCVWSIASELIEKRCRRMVVVVSDDYLQSKECDFQTKFALSLSPGAHQKRLIPIKYKAMKKEFPSILRFITVCDYTNPCTKSWFWTRLAKALSLP
notes: not shown: double 5' (N-terminal) HA tag
**Q.** Does B1 bind?
**A.** Result: no binding
